# Patent US10273244B2, “Substituted hexahydropyrrolo[3,4-b]pyrroles and hexahydrocyclopenta[c]pyrroles as dopamine receptor modulators” (INDIVIOR UK LIMITED, priority 2015, dated 2019)
# Target: human dopamine type 3 receptor (CHO-hD3 membranes) (Homo sapiens (Human), UniProt P35462)
# Conditions: displacement of 0.3 nM [3H]-Spiperone
# Chain of UniProt P35462 (P35462 whole entry): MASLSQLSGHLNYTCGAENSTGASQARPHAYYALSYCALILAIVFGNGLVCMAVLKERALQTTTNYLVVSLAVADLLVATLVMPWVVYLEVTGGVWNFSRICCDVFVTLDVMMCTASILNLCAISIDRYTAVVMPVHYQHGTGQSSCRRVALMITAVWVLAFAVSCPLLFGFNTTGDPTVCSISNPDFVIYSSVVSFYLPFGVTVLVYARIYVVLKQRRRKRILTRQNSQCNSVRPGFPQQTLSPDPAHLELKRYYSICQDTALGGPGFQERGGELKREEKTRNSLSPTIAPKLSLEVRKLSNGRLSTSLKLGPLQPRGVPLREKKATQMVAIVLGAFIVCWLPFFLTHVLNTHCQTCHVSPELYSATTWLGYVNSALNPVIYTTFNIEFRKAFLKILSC
row,SMILES,D3 pKi
1,"Cc1ncoc1-c1nnc(SCCCN2CC3CCN(c4ccc(C(F)(F)F)cc4)C3C2)n1C.Cl.Cl (centres unmarked) [Example 2, 4-methyl-3-(4-methyl-1,3-oxazol-5-yl)-5-[(3-{1-[4-(trifluoromethyl)phenyl]octahydropyrrolo[3,4-b]pyrrol-5-yl}propyl)sulfanyl]-4H-1,2,4-triazole dihydrochloride]",8.76
2,"Cc1ncoc1-c1nnc(SCCCN2C[C@@H]3CCN(c4ccc(C(F)(F)F)cc4)[C@@H]3C2)n1C.Cl.Cl [Example 5, 3-({3-[(3aS,6aS or 3aR,6aR)-1-[4-(trifluoromethyl)phenyl]-octahydropyrrolo[2,3-c]pyrrol-5-yl]propyl}sulfanyl)-4-methyl-5-(4-methyl-1,3-oxazol-5-yl)-4H-1,2,4-triazole dihydrochloride]",8.65
3,"Cc1ncoc1-c1nnc(SCCCN2C[C@H]3CCN(c4ccc(C(F)(F)F)cc4)[C@H]3C2)n1C.Cl.Cl [Example 6, 3-({3-[(3aR,6aR or 3aS,6aS)-1-[4-(trifluoromethyl)phenyl]-octahydropyrrolo[2,3-c]pyrrol-5-yl]propyl}sulfanyl)-4-methyl-5-(4-methyl-1,3-oxazol-5-yl)-4H-1,2,4-triazole dihydrochloride]",8.54
4,"Cc1ncoc1-c1nnc(SCCCN2CC3CCN(c4c(F)cccc4F)C3C2)n1C (centres unmarked) [Example 27, 3-({3-[1-(2,6-difluorophenyl)-octahydropyrrolo[3,4-b]pyrrol-5-yl]propyl}sulfanyl)-4-methyl-5-(4-methyl-1,3-oxazol-5-yl)-4H-1,2,4-triazole]",8.58
5,"Cc1ncoc1-c1nnc(SCCCN2CC3CCN(c4cc(Cl)cc(Cl)c4)C3C2)n1C (centres unmarked) [Example 28, 3-({3-[1-(3,5-dichlorophenyl)-octahydropyrrolo[3,4-b]pyrrol-5-yl]propyl}sulfanyl)-4-methyl-5-(4-methyl-1,3-oxazol-5-yl)-4H-1,2,4-triazole]",9.38
6,"Cc1ncoc1-c1nnc(SCCCN2CC3CCN(c4ccc(Cl)cc4Cl)C3C2)n1C (centres unmarked) [Example 29, 3-({3-[1-(2,4-dichlorophenyl)-octahydropyrrolo[3,4-b]pyrrol-5-yl]propyl}sulfanyl)-4-methyl-5-(4-methyl-1,3-oxazol-5-yl)-4H-1,2,4-triazole]",8.28
7,Cn1c(SCCCN2CC3CCN(c4ccccc4)C3C2)nnc1C1CCOCC1 (centres unmarked) [Example 36],7.94
8,"Cn1c(SCCCN2CC3CCN(c4cccnc4)C3C2)nnc1C1CCOCC1 (centres unmarked) [Example 46, 3-[5-(3-{[4-methyl-5-(oxan-4-yl)-4H-1,2,4-triazol-3-yl]sulfanyl}propyl)-octahydropyrrolo[2,3-c]pyrrol-1-yl]pyridine]",7.10
9,"Cn1c(SCCCN2CC3CCN(c4ccc(C(F)(F)F)cc4)C3C2)nnc1C1CCCCC1 (centres unmarked) [Example 56, 3-cyclohexyl-4-methyl-5-[(3-{1-[4-(trifluoromethyl)phenyl]-octahydropyrrolo[3,4-b]pyrrol-5-yl}propyl)sulfanyl]-4H-1,2,4-triazol]",9.48
10,"Cn1c(SCCCN2CC3CCN(c4ccc(C(F)(F)F)cc4)C3C2)nnc1C1COCCO1 (centres unmarked) [Example 71, 3-(1,4-dioxan-2-yl)-4-methyl-5-[(3-{1-[4-(trifluoromethyl)phenyl]-octahydropyrrolo[3,4-b]pyrrol-5-yl}propyl)sulfanyl]-4H-1,2,4-triazol]",7.47
11,"Cl.Cl.Cn1c(SCCCN2CC3CCN(c4c(F)cccc4F)C3C2)nnc1-c1cnccn1 (centres unmarked) [Example 99, 2-[5-({3-[1-(2,6-difluorophenyl)-octahydropyrrolo[3,4-b]pyrrol-5-yl]propyl}sulfanyl)-4-methyl-4H-1,2,4-triazol-3-yl]pyrazine dihydrochloride]",8.64
12,"COc1cc(N2CCC3CN(CCCSc4nnc(-c5cnccn5)n4C)CC32)ccc1F (centres unmarked) [Example 125, 2-[5-({3-[1-(4-fluoro-3-methoxyphenyl)-octahydropyrrolo[3,4-b]pyrrol-5-yl]propyl}sulfanyl)-4-methyl-4H-1,2,4-triazol-3-yl]pyrazine]",8.48
13,"COc1cc(N2CC[C@H]3CN(CCCSc4nnc(-c5cnccn5)n4C)C[C@H]32)ccc1F.Cl.Cl.Cl [Example 128, 2-[5-({3-[(3aS,6aS or 3aR,6aR)-1-(4-fluoro-3-methoxyphenyl)-octahydropyrrolo[3,4-b]pyrrol-5-yl]propyl}sulfanyl)-4-methyl-4H-1,2,4-triazol-3-yl]pyrazine trihydrochloride]",8.56
14,"COc1cc(N2CC[C@@H]3CN(CCCSc4nnc(-c5cnccn5)n4C)C[C@@H]32)ccc1F.Cl.Cl.Cl [Example 129, 2-[5-({3-[(3aR,6aR or 3aS,6aS)-1-(4-fluoro-3-methoxyphenyl)-octahydropyrrolo[3,4-b]pyrrol-5-yl]propyl}sulfanyl)-4-methyl-4H-1,2,4-triazol-3-yl]pyrazine trihydrochloride]",8.49

# Next, values leading:
row,D3 pKi,SMILES
1,8.10,"COc1cccc(N2CCC3CN(CCCSc4nnc(-c5cnccn5)n4C)CC32)c1 (centres unmarked) [Example 109, 2-[5-({3-[1-(3-methoxyphenyl)-octahydropyrrolo[3,4-b]pyrrol-5-yl]propyl}sulfanyl)-4-methyl-4H-1,2,4-triazol-3-yl]pyrazine]"
2,9.65,"Cn1c(SCCCN2CC3CCN(c4cccc(C(F)(F)F)c4)C3C2)nnc1-c1cnccn1 (centres unmarked) [Example 113, 2-{4-methyl-5-[(3-{1-[3-(trifluoromethyl)phenyl]-octahydropyrrolo[3,4-b]pyrrol-5-yl}propyl)sulfanyl]-4H-1,2,4-triazol-3-yl}pyrazine]"
3,9.45,"Cn1c(SCCCN2CC3CCN(c4cccc(OC(F)(F)F)c4)C3C2)nnc1-c1cnccn1 (centres unmarked) [Example 114, 2-{4-methyl-5-[(3-{1-[3-(trifluoromethoxy)phenyl]-octahydropyrrolo[3,4-b]pyrrol-5-yl}propyl)sulfanyl]-4H-1,2,4-triazol-3-yl}pyrazine]"
4,7.96,"CC(C)Oc1ccccc1N1CCC2CN(CCCSc3nnc(-c4cnccn4)n3C)CC21 (centres unmarked) [Example 115, 2-{4-methyl-5-[(3-{1-[2-(propan-2-yloxy)phenyl]-octahydropyrrolo[3,4-b]pyrrol-5-yl}propyl)sulfanyl]-4H-1,2,4-triazol-3-yl}pyrazine]"
5,7.23,"CC(C)Oc1ccccc1N1CC[C@H]2CN(CCCSc3nnc(-c4cnccn4)n3C)C[C@H]21.Cl.Cl [Example 118, 2-[5-({3-[(3aS,6aS or 3aR,6aR)-1-[2-(propan-2-yloxy)phenyl]-octahydropyrrolo[3,4-b]pyrrol-5-yl]propyl}sulfanyl)-4-methyl-4H-1,2,4-triazol-3-yl]pyrazine dihydrochloride]"
6,8.11,"CC(C)Oc1ccccc1N1CC[C@@H]2CN(CCCSc3nnc(-c4cnccn4)n3C)C[C@@H]21.Cl.Cl [Example 119, 2-[5-({3-[(3aR,6aR or 3aS,6aS)-1-[2-(propan-2-yloxy)phenyl]-octahydropyrrolo[3,4-b]pyrrol-5-yl]propyl}sulfanyl)-4-methyl-4H-1,2,4-triazol-3-yl]pyrazine dihydrochloride]"
7,7.62,"Cn1c(SCCCN2CC3CCN(c4ccc(F)cc4C(F)(F)F)C3C2)nnc1-c1cnccn1 (centres unmarked) [Example 130, 2-{5-[(3-{1-[4-fluoro-2-(trifluoromethyl)phenyl]-octahydropyrrolo[3,4-b]pyrrol-5-yl}propyl)sulfanyl]-4-methyl-4H-1,2,4-triazol-3-yl}pyrazine]"
8,8.36,"Cn1c(SCCCN2CC3CCN(c4c(F)cccc4C(F)(F)F)C3C2)nnc1-c1cnccn1 (centres unmarked) [Example 131, 2-{5-[(3-{1-[2-fluoro-6-(trifluoromethyl)phenyl]-octahydropyrrolo[3,4-b]pyrrol-5-yl}propyl)sulfanyl]-4-methyl-4H-1,2,4-triazol-3-yl}pyrazine]"
9,8.97,"Cl.Cl.Cn1c(SCCCN2CC3CCN(c4c(F)cc(F)cc4F)C3C2)nnc1-c1cnccn1 (centres unmarked) [Example 133, 2-[4-methyl-5-({3-[1-(2,4,6-trifluorophenyl)-octahydropyrrolo[2,3-c]pyrrol-5-yl]propyl}sulfanyl)-4H-1,2,4-triazol-3-yl]pyrazine dihydrochloride]"
10,8.45,"Cn1c(SCCCN2CC3CCN(c4ccc(C(F)(F)F)cc4)C3C2)nnc1-c1cccnc1 (centres unmarked) [Example 141, 3-{4-methyl-5-[(3-{1-[4-(trifluoromethyl)phenyl]-octahydropyrrolo[3,4-b]pyrrol-5-yl}propyl)sulfanyl]-4H-1,2,4-triazol-3-yl}pyridine]"
11,8.15,"Cl.Cl.Cl.Cn1c(SCCCN2C[C@@H]3CCN(c4ccc(C(F)(F)F)cc4)[C@@H]3C2)nnc1-c1cccnc1 [Example 144, 3-[5-({3-[(3aS,6aS or 3aR,6aR)-1-[4-(trifluoromethyl)phenyl]-octahydropyrrolo[3,4-b]pyrrol-5-yl]propyl}sulfanyl)-4-methyl-4H-1,2,4-triazol-3-yl]pyridine trihydrochloride]"
12,8.67,"Cl.Cl.Cl.Cn1c(SCCCN2C[C@H]3CCN(c4ccc(C(F)(F)F)cc4)[C@H]3C2)nnc1-c1cccnc1 [Example 145, 3-[5-({3-[(3aR,6aR or 3aS,6aS)-1-[4-(trifluoromethyl)phenyl]-octahydropyrrolo[3,4-b]pyrrol-5-yl]propyl}sulfanyl)-4-methyl-4H-1,2,4-triazol-3-yl]pyridine trihydrochloride]"
13,8.12,"Cn1c(SCCCN2CC3CCN(c4c(F)cccc4F)C3C2)nnc1-c1cccnc1 (centres unmarked) [Example 146, 3-[5-({3-[1-(2,6-difluorophenyl)-octahydropyrrolo[3,4-b]pyrrol-5-yl]propyl}sulfanyl)-4-methyl-4H-1,2,4-triazol-3-yl]pyridine]"
14,8.73,"Cn1c(SCCCN2CC3CCN(c4ccc(C(F)(F)F)cc4)C3C2)nnc1-c1ccncc1 (centres unmarked) [Example 153, 4-{4-methyl-5-[(3-{1-[4-(trifluoromethyl)phenyl]-octahydropyrrolo[3,4-b]pyrrol-5-yl}propyl)sulfanyl]-4H-1,2,4-triazol-3-yl}pyridine]"
15,8.35,"Cn1c(SCCCN2CC3CCN(c4c(F)cccc4F)C3C2)nnc1-c1ccncc1 (centres unmarked) [Example 154, 4-[5-({3-[1-(2,6-difluorophenyl)-octahydropyrrolo[3,4-b]pyrrol-5-yl]propyl}sulfanyl)-4-methyl-4H-1,2,4-triazol-3-yl]pyridine]"
